# Laboratory results reported in the supplement of paper PMC8728848.
# The list shows a part of the results.
# B1: HMGB1 (Rattus norvegicus), P63159 (protein)
# chain: MGKGDPKKPRGKMSSYAFFVQTCREEHKKKHPDASVNFSEFSKKCSERWKTMSAKEKGKFEDMAKADKARYEREMKTYIPPKGETKKKFKDPNAPKRPPSAFFLFCSEYRPKIKGEHPGLSIGDVAKKLGEMWNNTAADDKQPYEKKAAKLKEKYEKDIAAYRAKGKPDAAKKGVVKAEKSKKKKEEEDDEEDEEDEEEEEEEEDEDEEEDDDDE
# Columns and labels:
# Test in all cases: glycan array binding signal (z-score within array); higher = stronger binding
# Details in all cases: glycan notation: IUPAC condensed, linker removed
# Fuc(a1-2)Gal = biological target: Fuc(a1-2)Gal
# In short: (§1)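 The Consortium for Functional Glycomics database supplied 3228 glycan arrays, of which those lacking an available protein sequence were dropped. The binding signal, a within-array Z-score, was averaged across arrays of the same protein sequence and across linkers. Negative scores can be read as non-binding.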
# Fuc(a1-2)Gal(b1-3)GalNAc = biological target: Fuc(a1-2)Gal(b1-3)GalNAc
# In short: as §1
# [1] = biological target: Fuc(a1-2)Gal(b1-3)GalNAc(b1-3)Gal
# In short: as §1
# [2] = biological target: Fuc(a1-2)Gal(b1-3)GalNAc(b1-3)Gal(a1-4)Gal(b1-4)Glc
# In short: as §1
# [3] = biological target: Fuc(a1-2)Gal(b1-3)GalNAc(b1-3)Gal(b1-4)Glc
# In short: as §1
# [4] = biological target: Fuc(a1-2)Gal(b1-3)GalNAc(b1-4)[Neu5Ac(a2-3)]Gal(b1-4)Glc
# In short: as §1
# [5] = biological target: Fuc(a1-2)Gal(b1-3)[Fuc(a1-4)]GlcNAc
# In short: as §1
# Fuc(a1-2)Gal(b1-4)Glc = biological target: Fuc(a1-2)Gal(b1-4)Glc
# In short: as §1
# Fuc(a1-2)Gal(b1-4)GlcNAc = biological target: Fuc(a1-2)Gal(b1-4)GlcNAc
# In short: as §1
# [6] = biological target: Fuc(a1-2)Gal(b1-4)GlcNAc(b1-3)Gal(b1-4)GlcNAc
# In short: as §1
# [7] = biological target: Fuc(a1-2)Gal(b1-4)GlcNAc(b1-3)Gal(b1-4)GlcNAc(b1-3)Gal(b1-4)GlcNAc
# In short: as §1
# [8] = biological target: Fuc(a1-2)Gal(b1-4)[Fuc(a1-3)]GalNAc(b1-3)Gal(b1-4)[Fuc(a1-3)]GlcNAc
# In short: as §1
# [9] = biological target: Fuc(a1-2)Gal(b1-4)[Fuc(a1-3)]GalNAc(b1-3)Gal(b1-4)[Fuc(a1-3)]GlcNAc(b1-3)Gal(b1-4)[Fuc(a1-3)]GalNAc
# In short: as §1
# [10] = biological target: Fuc(a1-2)Gal(b1-4)[Fuc(a1-3)]GlcNAc
# In short: as §1
# Fuc(a1-2)GlcNAc = biological target: Fuc(a1-2)GlcNAc
# In short: as §1
# Fuc(a1-2)[Gal(a1-3)]Gal = biological target: Fuc(a1-2)[Gal(a1-3)]Gal
# In short: as §1
# [11] = biological target: Fuc(a1-2)[Gal(a1-3)]Gal(b1-3)GlcNAc
# In short: as §1
# [12] = biological target: Fuc(a1-2)[Gal(a1-3)]Gal(b1-4)Glc
# In short: as §1
# [13] = biological target: Fuc(a1-2)[Gal(a1-3)]Gal(b1-4)GlcNAc
# In short: as §1
# [14] = biological target: Fuc(a1-2)[Gal(a1-3)]Gal(b1-4)[Fuc(a1-3)]GlcNAc
# In short: as §1
# [15] = biological target: Fuc(a1-2)[Gal(a1-4)]Gal(b1-4)GalNAc
# In short: as §1
# [16] = biological target: Fuc(a1-2)[GalNAc(a1-3)]Gal
# In short: as §1
# [17] = biological target: Fuc(a1-2)[GalNAc(a1-3)]Gal(b1-3)GlcNAc
# In short: as §1
# [18] = biological target: Fuc(a1-2)[GalNAc(a1-3)]Gal(b1-4)Glc
# In short: as §1
# [19] = biological target: Fuc(a1-2)[GalNAc(a1-3)]Gal(b1-4)GlcNAc
# In short: as §1
# [20] = biological target: Fuc(a1-2)[GalNAc(a1-3)]Gal(b1-4)[Fuc(a1-3)]GlcNAc
# In short: as §1
# [21] = biological target: Fuc(a1-2)[GalNAc(a1-4)]Gal(b1-4)GlcNAc
# In short: as §1
# Fuc(a1-3)GlcNAc = biological target: Fuc(a1-3)GlcNAc
# In short: as §1
# [22] = biological target: Fuc(a1-3)[Gal(b1-4)]GlcNAc
# In short: as §1
# [23] = biological target: Fuc(a1-3)[Gal(b1-4)]GlcNAc(b1-4)Gal(b1-4)[Fuc(a1-3)]GlcNAc
# In short: as §1
# [24] = biological target: Fuc(a1-3)[Gal(b1-4)]GlcNAc(b1-4)Gal(b1-4)[Fuc(a1-3)]GlcNAc(b1-4)Gal(b1-4)[Fuc(a1-3)]GlcNAc
# In short: as §1
# [25] = biological target: Fuc(a1-3)[Gal3S(b1-4)]GlcNAc
# In short: as §1
# [26] = biological target: Fuc(a1-3)[GalNAc(b1-4)]Gal(b1-4)GlcNAc
# In short: as §1
# Fuc(a1-4)GlcNAc = biological target: Fuc(a1-4)GlcNAc
# In short: as §1
# Fuc(b1-3)GlcNAc = biological target: Fuc(b1-3)GlcNAc
# In short: as §1
# Gal(a1-2)Gal = biological target: Gal(a1-2)Gal
# In short: as §1
# Gal(a1-3)Gal = biological target: Gal(a1-3)Gal
# In short: as §1
# Gal(a1-3)Gal(b1-3)Glc = biological target: Gal(a1-3)Gal(b1-3)Glc
# In short: as §1
# Gal(a1-3)Gal(b1-3)GlcNAc = biological target: Gal(a1-3)Gal(b1-3)GlcNAc
# In short: as §1
# Gal(a1-3)Gal(b1-4)GlcNAc = biological target: Gal(a1-3)Gal(b1-4)GlcNAc
# In short: as §1
# [27] = biological target: Gal(a1-3)Gal(b1-4)[Fuc(a1-3)]GalNAc
# In short: as §1
# Gal(a1-3)GlcNAc = biological target: Gal(a1-3)GlcNAc
# In short: as §1
# [28] = biological target: Gal(a1-3)[Gal(a1-4)]Gal(b1-4)GlcNAc
# In short: as §1
# Gal(a1-4)Gal(b1-4)Gal = biological target: Gal(a1-4)Gal(b1-4)Gal
# In short: as §1
# Gal(a1-4)Gal(b1-4)GalNAc = biological target: Gal(a1-4)Gal(b1-4)GalNAc
# In short: as §1
binder,measurement,setting,value
B1,glycan array binding signal (z-score),Fuc(a1-2)Gal,0.117
same,glycan array binding signal (z-score),Fuc(a1-2)Gal(b1-3)GalNAc,-0.34
same,glycan array binding signal (z-score),[1],0.287
same,glycan array binding signal (z-score),[2],0.32
same,glycan array binding signal (z-score),[3],-0.547
same,glycan array binding signal (z-score),[4],-0.006
same,glycan array binding signal (z-score),[5],1.15
same,glycan array binding signal (z-score),Fuc(a1-2)Gal(b1-4)Glc,-0.708
same,glycan array binding signal (z-score),Fuc(a1-2)Gal(b1-4)GlcNAc,0.232
same,glycan array binding signal (z-score),[6],-0.592
same,glycan array binding signal (z-score),[7],-0.587
same,glycan array binding signal (z-score),[8],-0.383
same,glycan array binding signal (z-score),[9],-0.163
same,glycan array binding signal (z-score),[10],0.047
same,glycan array binding signal (z-score),Fuc(a1-2)GlcNAc,1.12
same,glycan array binding signal (z-score),Fuc(a1-2)[Gal(a1-3)]Gal,-0.649
same,glycan array binding signal (z-score),[11],-0.615
same,glycan array binding signal (z-score),[12],0.151
same,glycan array binding signal (z-score),[13],-0.301
same,glycan array binding signal (z-score),[14],-0.425
same,glycan array binding signal (z-score),[15],-0.437
same,glycan array binding signal (z-score),[16],-0.068
same,glycan array binding signal (z-score),[17],-0.311
same,glycan array binding signal (z-score),[18],-0.561
same,glycan array binding signal (z-score),[19],-0.034
same,glycan array binding signal (z-score),[20],-0.019
same,glycan array binding signal (z-score),[21],-0.577
same,glycan array binding signal (z-score),Fuc(a1-3)GlcNAc,9.99
same,glycan array binding signal (z-score),[22],-0.513
same,glycan array binding signal (z-score),[23],-0.193
same,glycan array binding signal (z-score),[24],-0.049
same,glycan array binding signal (z-score),[25],-0.636
same,glycan array binding signal (z-score),[26],-0.63
same,glycan array binding signal (z-score),Fuc(a1-4)GlcNAc,-0.088
same,glycan array binding signal (z-score),Fuc(b1-3)GlcNAc,-0.654
same,glycan array binding signal (z-score),Gal(a1-2)Gal,-0.374
same,glycan array binding signal (z-score),Gal(a1-3)Gal,-0.356
same,glycan array binding signal (z-score),Gal(a1-3)Gal(b1-3)Glc,-0.433
same,glycan array binding signal (z-score),Gal(a1-3)Gal(b1-3)GlcNAc,-0.625
same,glycan array binding signal (z-score),Gal(a1-3)Gal(b1-4)GlcNAc,-0.184
same,glycan array binding signal (z-score),[27],0.108
same,glycan array binding signal (z-score),Gal(a1-3)GlcNAc,-0.253
same,glycan array binding signal (z-score),[28],-0.404
same,glycan array binding signal (z-score),Gal(a1-4)Gal(b1-4)Gal,-0.012
same,glycan array binding signal (z-score),Gal(a1-4)Gal(b1-4)GalNAc,-0.457
